Assay results reported in the RNAGym collection of RNA variant scans (doi:10.7554/elife.90254).
Read counts are not given, so values of variants with three or more changes are uncertain.

B1: LINE1-mini (parent)
chain: GGCAGAGCUCAACACAGCGUGGCAAAGUGGCUGUGGCUAGACUGCC

Variants of: B1
Test: self-cleavage, relative activity (ratio to wild type); higher = more cleavage; in vitro, sequencing; the parent is a self-cleaving ribozyme

Which self-cleavage does the source give for C10U C15A C31A G33C here?
Its self-cleavage is 0.02.

For G1A C10G A39G, which self-cleavage is on record?
Its self-cleavage is 0.1.

With G1C G5A C10A A11G A14U G17A C42A G44U C46A as the variant, how does the self-cleavage read?
Its self-cleavage is 0.01.

For G5A C10G U20C, which self-cleavage is on record?
Its self-cleavage is 0.04.

For G36A G40U A41C, which self-cleavage is on record?
Its self-cleavage is 1.03.

With A16C C18G G29A as the variant, how does the self-cleavage read?
The self-cleavage was 0.22.

For G29A C31G A41G, which self-cleavage is on record?
The self-cleavage was 0.02.

For C3A A26U C37U G44A C46G, which self-cleavage is on record?
The self-cleavage was 0.06.

Which self-cleavage does the source give for U28A G35A G36A here?
The self-cleavage was 0.08.

Which self-cleavage does the source give for G1C C3U C8A C46G here?
Its self-cleavage is 0.24.

For G7U C13A A26C, which self-cleavage is on record?
Its self-cleavage is 0.08.

Which self-cleavage does the source give for G1U A4U U34A G40A here?
The self-cleavage was 0.09.

For A25C U34A G36C C46G, which self-cleavage is on record?
Its self-cleavage is 0.06.

Which self-cleavage does the source give for A12C G27A A41U here?
Its self-cleavage is 0.02.

With C8A G19A G21A A24G G36A as the variant, how does the self-cleavage read?
Its self-cleavage is 0.67.

With U20C G30U U32G A39U as the variant, how does the self-cleavage read?
Its self-cleavage is 0.01.

Which self-cleavage does the source give for G1U G2A G21A A25U G30U G35U G44U here?
Its self-cleavage is 0.12.

Which self-cleavage does the source give for G5A C15A C23G G36C here?
The self-cleavage was 0.02.

For G7U C8U C10U A16G C31U U32G, which self-cleavage is on record?
Its self-cleavage is 0.04.

With G7U C15U C18A C37A U43C as the variant, how does the self-cleavage read?
Its self-cleavage is 0.08.

Which self-cleavage does the source give for A6C A24C G29U here?
The self-cleavage was 1.74.

For A11U G21U A26U G29U, which self-cleavage is on record?
The self-cleavage was 0.06.

With A12C C18A C46A as the variant, how does the self-cleavage read?
The self-cleavage was 0.04.

Which self-cleavage does the source give for C18U G19A G29U here?
Its self-cleavage is 0.12.

Which self-cleavage does the source give for G1A A26U G29U G30A G36U here?
The self-cleavage was 0.06.

Which self-cleavage does the source give for A16U G22A C23A U38A here?
Its self-cleavage is 0.41.

Which self-cleavage does the source give for G1A A4G C8U here?
Its self-cleavage is 0.08.

For C8G A24G G33U U43C, which self-cleavage is on record?
Its self-cleavage is 0.04.

For A4C G30A C46U, which self-cleavage is on record?
Its self-cleavage is 0.03.

For C15G U20C G21U, which self-cleavage is on record?
The self-cleavage was 0.02.

With C13A C18U G27A U43A as the variant, how does the self-cleavage read?
Its self-cleavage is 0.07.

For C8A A14U G19C G29U C31A, which self-cleavage is on record?
The self-cleavage was 0.07.

With C13A C23U G35U as the variant, how does the self-cleavage read?
The self-cleavage was 1.31.

With G21U G36U U43C as the variant, how does the self-cleavage read?
The self-cleavage was 0.03.

Which self-cleavage does the source give for G5A G22A G44U here?
The self-cleavage was 0.08.

Which self-cleavage does the source give for A24G A25C C45A here?
Its self-cleavage is 0.2.

For C8G C18A G21A U28G A39G U43C, which self-cleavage is on record?
The self-cleavage was 0.01.

With A4U U9G U28C U32C G35C as the variant, how does the self-cleavage read?
The self-cleavage was 0.03.

With G7C C10A G21A as the variant, how does the self-cleavage read?
Its self-cleavage is 0.02.

Which self-cleavage does the source give for C18U C37U A41U G44A here?
The self-cleavage was 0.04.

For G1U A12G U34A C45G, which self-cleavage is on record?
Its self-cleavage is 0.

For G17U C18A G21C G35C C46A, which self-cleavage is on record?
The self-cleavage was 0.03.

With C15G C18U G22C as the variant, how does the self-cleavage read?
Its self-cleavage is 0.02.

Which self-cleavage does the source give for C8G G35U C45G here?
The self-cleavage was 0.03.

For U9A A16C G35C, which self-cleavage is on record?
The self-cleavage was 0.06.

Which self-cleavage does the source give for A25U G35A A39G U43C here?
Its self-cleavage is 0.04.

Which self-cleavage does the source give for G1U G5C A6C here?
Its self-cleavage is 0.03.

With G2U C23A G36C as the variant, how does the self-cleavage read?
Its self-cleavage is 0.21.

For A14C G17U U38G, which self-cleavage is on record?
The self-cleavage was 0.

With A16C U28G G40U as the variant, how does the self-cleavage read?
The self-cleavage was 0.03.

With G2A G21A G27C U43A as the variant, how does the self-cleavage read?
The self-cleavage was 0.28.

Which self-cleavage does the source give for G7U A16U U34C G36A C42G here?
Its self-cleavage is 0.05.

For C10G G17A G44C, which self-cleavage is on record?
The self-cleavage was 0.03.

Which self-cleavage does the source give for A4C A14U G30U C31G G40A here?
Its self-cleavage is 0.09.

For C18A C23A U28G, which self-cleavage is on record?
The self-cleavage was 0.77.

With C10U G27A U38C G40C C42A as the variant, how does the self-cleavage read?
The self-cleavage was 0.26.

Which self-cleavage does the source give for G1U A6C G27U U28G here?
The self-cleavage was 0.08.

For C15A G19C G30U G35C C46G, which self-cleavage is on record?
The self-cleavage was 0.07.

For C3A C10G G21U, which self-cleavage is on record?
The self-cleavage was 0.08.

For C15G C23U G27A U38G, which self-cleavage is on record?
Its self-cleavage is 0.01.

Which self-cleavage does the source give for G1U C8A C18U U34A here?
Its self-cleavage is 0.05.

For C8A C18G G19A G30U C31A G36A C46A, which self-cleavage is on record?
Its self-cleavage is 0.05.

With C8U C13U A24C A25C as the variant, how does the self-cleavage read?
Its self-cleavage is 0.06.

Which self-cleavage does the source give for C3U C15U C23G here?
Its self-cleavage is 0.9.

For A11C A16U G40A, which self-cleavage is on record?
The self-cleavage was 0.

For G5A U28C G33U C37A, which self-cleavage is on record?
The self-cleavage was 0.05.

For C10A A26G C31G, which self-cleavage is on record?
Its self-cleavage is 0.03.

Which self-cleavage does the source give for G19U U20C A26G here?
The self-cleavage was 0.34.

With G5U G19U G30U C42A as the variant, how does the self-cleavage read?
The self-cleavage was 0.1.

For G17A C23G U34A, which self-cleavage is on record?
The self-cleavage was 0.02.

Which self-cleavage does the source give for A6G C13G G19C here?
Its self-cleavage is 0.02.

With G27C C37U A39G as the variant, how does the self-cleavage read?
The self-cleavage was 0.

For A11U G17U C23A U38G, which self-cleavage is on record?
The self-cleavage was 0.

For G1C C10A C13U U34A A39C, which self-cleavage is on record?
Its self-cleavage is 0.

With G1C G7U C42U as the variant, how does the self-cleavage read?
Its self-cleavage is 0.04.

Which self-cleavage does the source give for C3A U9A U38A C42A here?
The self-cleavage was 0.06.

For A6G C13G G29U G40U, which self-cleavage is on record?
The self-cleavage was 0.12.

Which self-cleavage does the source give for C3A C13G U34C C45G C46G here?
Its self-cleavage is 0.1.

For G1A A6C G17C U43A, which self-cleavage is on record?
The self-cleavage was 0.05.

Which self-cleavage does the source give for C8A U9A A16C C31U here?
Its self-cleavage is 0.08.

With G30U G36U G44A as the variant, how does the self-cleavage read?
The self-cleavage was 0.06.

Which self-cleavage does the source give for C18U G22C C42U here?
Its self-cleavage is 0.15.

Which self-cleavage does the source give for C18A A24U A26U G44U here?
The self-cleavage was 0.04.
